Reference: the supplement of paper PMC8728848
The other results are listed elsewhere or left out.

Experiments:
Test in all cases: glycan array binding signal (z-score within array); higher = stronger binding
Details in all cases: glycan notation: IUPAC condensed, linker removed
Neu5Ac(a2-8)Neu5Ac = biological target: Neu5Ac(a2-8)Neu5Ac
Summary of the method: (§1)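 From the Consortium for Functional Glycomics database, 3228 arrays were curated, keeping only those whose protein sequence was available. Binding is given as a within-array Z-score averaged across arrays sharing a protein sequence and across linkers. Negative Z-scores can be read as non-binding.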

[1] = biological target: Neu5Ac(a2-8)Neu5Ac(a2-3)Gal(b1-3)GalNAc(b1-4)[Neu5Ac(a2-3)]Gal(b1-4)Glc
Summary of the method: as §1

[2] = biological target: Neu5Ac(a2-8)Neu5Ac(a2-3)Gal(b1-3)GalNAc(b1-4)[Neu5Ac(a2-8)Neu5Ac(a2-3)]Gal(b1-4)Glc
Summary of the method: as §1

[3] = biological target: Neu5Ac(a2-8)Neu5Ac(a2-3)Gal(b1-4)Glc
Summary of the method: as §1

[4] = biological target: Neu5Ac(a2-8)Neu5Ac(a2-3)Gal(b1-4)GlcNAc
Summary of the method: as §1

[5] = biological target: Neu5Ac(a2-8)Neu5Ac(a2-3)[Gal(b1-3)GalNAc(b1-4)]Gal(b1-4)Glc
Summary of the method: as §1

[6] = biological target: Neu5Ac(a2-8)Neu5Ac(a2-3)[GalNAc(b1-4)]Gal(b1-4)Glc
Summary of the method: as §1

[7] = biological target: Neu5Ac(a2-8)Neu5Ac(a2-8)Neu5Ac
Summary of the method: as §1

[8] = biological target: Neu5Ac(a2-8)Neu5Ac(a2-8)Neu5Ac(a2-3)Gal(b1-4)Glc
Summary of the method: as §1

[9] = biological target: Neu5Ac(a2-8)Neu5Ac(a2-8)Neu5Ac(a2-3)[Gal(b1-3)GalNAc(b1-4)]Gal(b1-4)Glc
Summary of the method: as §1

[10] = biological target: Neu5Ac(a2-8)Neu5Ac(a2-8)Neu5Ac(a2-3)[GalNAc(b1-4)]Gal(b1-4)Glc
Summary of the method: as §1

[11] = biological target: Neu5Ac(a2-8)Neu5Ac(a2-8)Neu5Ac(a2-8)Neu5Ac(a2-3)[GalNAc(b1-4)]Gal(b1-4)Glc
Summary of the method: as §1

[12] = biological target: Neu5Ac(a2-8)Neu5Gc(a2-3)Gal(b1-4)GlcNAc
Summary of the method: as §1

[13] = biological target: Neu5Ac(b2-6)Gal(b1-4)GlcNAc
Summary of the method: as §1

Neu5Ac(b2-6)GalNAc = biological target: Neu5Ac(b2-6)GalNAc
Summary of the method: as §1

[14] = biological target: Neu5Ac9Ac(a2-3)Gal(b1-3)GlcNAc
Summary of the method: as §1

[15] = biological target: Neu5Ac9Ac(a2-3)Gal(b1-4)GlcNAc
Summary of the method: as §1

[16] = biological target: Neu5Ac9Ac(a2-6)Gal(b1-4)GlcNAc
Summary of the method: as §1

[17] = biological target: Neu5Gc(a2-3)Gal(b1-3)GlcNAc
Summary of the method: as §1

[18] = biological target: Neu5Gc(a2-3)Gal(b1-3)[Fuc(a1-4)]GlcNAc
Summary of the method: as §1

Neu5Gc(a2-3)Gal(b1-4)Glc = biological target: Neu5Gc(a2-3)Gal(b1-4)Glc
Summary of the method: as §1

[19] = biological target: Neu5Gc(a2-3)Gal(b1-4)GlcNAc
Summary of the method: as §1

[20] = biological target: Neu5Gc(a2-3)Gal(b1-4)GlcNAc(b1-3)Gal(b1-4)GlcNAc(b1-2)Man(a1-3)[Neu5Gc(a2-3)Gal(b1-4)GlcNAc(b1-3)Gal(b1-4)GlcNAc(b1-2)Man(a1-6)]Man(b1-4)GlcNAc(b1-4)GlcNAc
Summary of the method: as §1

[21] = biological target: Neu5Gc(a2-3)Gal(b1-4)[Fuc(a1-3)]GlcNAc
Summary of the method: as §1

[22] = biological target: Neu5Gc(a2-6)Gal(b1-4)GlcNAc
Summary of the method: as §1

Neu5Gc(a2-6)GalNAc = biological target: Neu5Gc(a2-6)GalNAc
Summary of the method: as §1

[23] = biological target: Neu5Gc(a2-8)Neu5Ac(a2-3)Gal(b1-4)GlcNAc
Summary of the method: as §1

[24] = biological target: Neu5Gc(a2-8)Neu5Gc(a2-3)Gal(b1-4)GlcNAc
Summary of the method: as §1

[25] = biological target: Neu5Gc(a2-8)Neu5Gc(a2-3)Gal(b1-4)GlcNAc(b1-3)Gal(b1-4)GlcNAc
Summary of the method: as §1

[26] = biological target: Neu5Gc(a2-8)Neu5Gc(a2-6)Gal(b1-4)GlcNAc
Summary of the method: as §1

[27] = biological target: Neu5Gc(b2-6)Gal(b1-4)GlcNAc
Summary of the method: as §1

B1: PfulAvr4 2 (Pseudocercospora fuligena) (protein)
chain: HHHHHHDYKDDDDKAKPIKPFACPPKDFTTTKCQGPVDCLYANPLSCLGYIQCVCDDDACSTATPYAKSCPTGLAWVEKLKRCDGIKKSACPKKMYEGS
Which “glycan array binding signal (z-score)” value (Neu5Ac(a2-8)Neu5Ac) does the source give for B1 here?
The value was -0.297.

What about the “glycan array binding signal (z-score)” value [1] of the same binder?
The value was -0.14.

And the “glycan array binding signal (z-score)” value [2]?
The value was 1.97.

What about the “glycan array binding signal (z-score)” value [3] of the same binder?
Its value is -0.324.

And the “glycan array binding signal (z-score)” value [4]?
Its value is -0.416.

And the “glycan array binding signal (z-score)” value [5]?
Its value is -0.259.

And the “glycan array binding signal (z-score)” value [6]?
Its value is -0.277.

And the “glycan array binding signal (z-score)” value [7]?
Its value is -0.178.

What about the “glycan array binding signal (z-score)” value [8] of the same binder?
The value was -0.243.

What about the “glycan array binding signal (z-score)” value [9] of the same binder?
The value was 0.31.

And the “glycan array binding signal (z-score)” value [10]?
Its value is -0.402.

What about the “glycan array binding signal (z-score)” value [11] of the same binder?
Its value is -0.421.

And the “glycan array binding signal (z-score)” value [12]?
Its value is -0.336.

What about the “glycan array binding signal (z-score)” value [13] of the same binder?
Its value is -0.388.

What about the “glycan array binding signal (z-score)” value (Neu5Ac(b2-6)GalNAc) of the same binder?
Its value is -0.251.

What about the “glycan array binding signal (z-score)” value [14] of the same binder?
Its value is -0.251.

What about the “glycan array binding signal (z-score)” value [15] of the same binder?
The value was -0.216.

What about the “glycan array binding signal (z-score)” value [16] of the same binder?
The value was -0.113.

What about the “glycan array binding signal (z-score)” value [17] of the same binder?
Its value is -0.237.

And the “glycan array binding signal (z-score)” value [18]?
Its value is -0.204.

What about the “glycan array binding signal (z-score)” value (Neu5Gc(a2-3)Gal(b1-4)Glc) of the same binder?
The value was 0.244.

And the “glycan array binding signal (z-score)” value [19]?
The value was -0.214.

What about the “glycan array binding signal (z-score)” value [20] of the same binder?
The value was -0.009.

What about the “glycan array binding signal (z-score)” value [21] of the same binder?
Its value is -0.42.

What about the “glycan array binding signal (z-score)” value [22] of the same binder?
Its value is -0.322.

And the “glycan array binding signal (z-score)” value (Neu5Gc(a2-6)GalNAc)?
The value was -0.133.

And the “glycan array binding signal (z-score)” value [23]?
Its value is -0.356.

What about the “glycan array binding signal (z-score)” value [24] of the same binder?
The value was -0.296.

What about the “glycan array binding signal (z-score)” value [25] of the same binder?
The value was -0.236.

What about the “glycan array binding signal (z-score)” value [26] of the same binder?
The value was -0.299.

What about the “glycan array binding signal (z-score)” value [27] of the same binder?
The value was -0.18.
